± gives the standard deviation of the averaged measurements. The list shows a part of the results.

This experiment relates to PfAP2-EXP AP2 domain (GST-tagged). The experiment can be described thus: gcPBM binding intensity (ln(normalized median fluorescence intensity)); higher = stronger DNA binding. In outline: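 Binding intensity is the highest Masliner-normalised natural-log median intensity over replicate spots in either probe orientation. To obtain it, GST-tagged P. falciparum DNA-binding domains made in E. coli were incubated for 1 h on an Agilent 4 × 180k array of primer-extended double-stranded 36-bp intergenic genomic probes plus negative controls. Detection used Alexa488 anti-GST antibody with scanning at 488 nm.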
Regarding “GAGTTTATATTTTAAGCATGCATATGTTATTATTAT [TGCATGCA_site1049]”, the “gcPBM binding intensity (ln)” value was determined as 9.17 ± 0.45.
“AAAAAAACAGAAAACACACAAATTATCTTATAATTA [CACACA_site6282]”: the “gcPBM binding intensity (ln)” value stood at 8.3 ± 0.46.
To “TATATAAGAATATATACACACATATCTGTATTTATA [CACACA_site5231]” belongs 8.15 ± 0.35; to “TTATTAACGGAACTCTGTACTTAAAAAATTTTAGAA [XGTACX_site8787]”, 8.3 ± 0.26; to “ATTGTTTCATTAAAATGTACATAAATTGTGTATAAT [XGTACX_site5341]”, 8.55 ± 0.28.
On to “AATAAAATAAAAAAAAATAAAAAAAAAATAAAAAAT [XGTACX_negctrl_site245]”, for which the “gcPBM binding intensity (ln)” value was 8.38 ± 0.45.
The result for “TATATATATATTTAATGTACATGTTTATTTTATCAT [XGTACX_site499]” reads 9.5 ± 0.11; that for TTTATAAAGGGAAAGGTGCAAAAGGTGAAAGTTTTA, 9.29 ± 0.24; that for “TATTTTTCTTTTTAAGTGCATGGTTGTATAAAATTT [GTGCAC_site9480]”, 8.73 ± 0.44.
To “TCTTTTTTGAAGCATTTTGTTTTTTAATAAGTAAAA [TGCATGCA_negctrl_site247]” belongs 8.31 ± 0.42.
To “ATATAATGAAGTGAATGTACATATAAAATGTAAAAA [XGTACX_site8052]” belongs 8.73 ± 0.24.
In the case of “TCAAATTTAATCATAACACACATTCACATATGAATT [CACACA_site3199]”, the “gcPBM binding intensity (ln)” value came out at 8.19 ± 0.56.
The result for “ATATAACATTGTTTTGCATGTAAATATTCAATTTTT [TGCATGCA_site758]” reads 8.96 ± 0.15.
Regarding “TCAAAATATCCAAAAGAATAAAGAAAAAAAAAAAGA [CACACA_negctrl_site1377]”, the “gcPBM binding intensity (ln)” value was determined as 8.41 ± 0.43.
The result for “TTTTTATAAATAATAAGGCGTATGAAAATAAAATAA [TGCATGCA_negctrl_site421]” reads 8.72 ± 0.26; that for “AAACTGAAAAAAATATGTACATATTTATATCTTATA [XGTACX_site3011]”, 8.44 ± 0.29; that for “TAAAGCAACTGAAACACACAAATTTTTTTTTTTTTT [CACACA_site7499]”, 8.29 ± 0.13.
To “ATTGTATAAAAATGTACATGCAATAAATTTAGTTCT [TGCATGCA_site675]” belongs 8.92 ± 0.23; to “TAGTATAATATATATTGTACGTTTTAATTGTTTATA [XGTACX_site2731]”, 8.25 ± 0.35.
To “GAAACGTTTTTTCAGTGTACATTTTACCGATTTGTA [XGTACX_site8249]” belongs 8.89 ± 0.5.
Consider “AAAAAAAAAAAACACACACACAAATACAAATACATA [CACACA_site415]”, for which the “gcPBM binding intensity (ln)” value turned out to be 8.68 ± 0.49.
To “TTGAGCCTACAAAAGGGTACACATTCAATTTATTTT [XGTACX_site6570]” belongs 8.39 ± 0.4; to “ATATTTTGTTATGAAACACACACATATATATATATA [CACACA_site9216]”, 10.1 ± 0.16.
As for “AAAAAAAAAAGAAATTGTACTTTTTGTTTAATAATT [XGTACX_site4681]”, the “gcPBM binding intensity (ln)” value was determined as 8.26 ± 0.48.
The result for “ATTATATACAAATAAAGTACATAAACAAATTCAGAA [XGTACX_site1187]” reads 8.7 ± 0.31; that for “TATTTCAAACTGTTCTCACACACGAAATTAGAAATG [CACACA_site611]”, 8.42 ± 0.42; that for “ATAAAATGATGTATCTGTGTATGTTTATTTTGTTTT [XGTACX_negctrl_site367]”, 8.4 ± 0.26.
The result for “ATTCCAGAAATATATTAACAAGGAAAATATAAAAAT [CACACA_negctrl_site343]” reads 8.63 ± 0.5; that for “TTTTGAATATGGATCTTATATATATTAAATAAATAA [CACACA_negctrl_site344]”, 7.95 ± 0.48.
Consider “ATATATATTATATATGCATGCCAAATCTTTATAAAC [TGCATGCA_site1042]”, for which the “gcPBM binding intensity (ln)” value came to 9.14 ± 0.52.
On to “ACATATATATATATATATATATATATATATAGATAG [CACACA_negctrl_site783]”, for which the “gcPBM binding intensity (ln)” value was determined as 9.055 ± 0.064.
On to “ATAAAGAAATTACACACATGCAATGAAAAAAAAAAA [TGCATGCA_site406]”, for which the “gcPBM binding intensity (ln)” value stood at 8.88 ± 0.35.
In the case of “AAAACTAAATGTTATTCGCACACGGAATTTATTTAA [CACACA_site9221]”, the “gcPBM binding intensity (ln)” value was 8.35 ± 0.42.
The result for “ACAAAAAAATATTTATGTACTTATTATATTTATAAT [XGTACX_site2059]” reads 8.15 ± 0.3.
To “CTTTTTACTTAATACACACACACACTAAAAAAAAAA [CACACA_site6574]” belongs 8.65 ± 0.51; to “TACTAAGAAGTATTTACACACCAACAAGGCGAAAAA [CACACA_site2944]”, 8.56 ± 0.44; to “ATATGTATAAAAATCCGTACATAAGTGTGCGTATAT [XGTACX_site4376]”, 8.57 ± 0.092.
To “ATGTTTGAGCCTAAGGTGCATATAAAAATATATGTG [GTGCAC_site9690]” belongs 8.81 ± 0.042; to “ATAAATAATATGTAAACACACAAAAAATAAAAATGA [CACACA_site1178]”, 8.7 ± 0.45; to “TATGGGTATGTATTCACACATAACAAAAATATCAAA [CACACA_site5059]”, 8.72 ± 0.42.
For “ATATATATATATAACACACGCAAAAAAATTAAATAA [CACACA_site1400]”, the “gcPBM binding intensity (ln)” value came to 9.96 ± 0.11.
To “CAAAGACACAAACACACACACACATACATACATACA [CACACA_site453]” belongs 9.29 ± 0.29; to “TTTTATATATTCAATTGTACATGTATTTTTTTTTTT [XGTACX_site3584]”, 8.72 ± 0.47.
The result for “ATAAATTTACTTGATTGTACATTTCTTAGTTGTATT [XGTACX_site3057]” reads 8.54 ± 0.33.

The values above are taken from the supplement of paper PMC11417369.
